# Assay results: article PMC6212790
# Some of the results follow. At the low end of the ranking the order means little.
# Molecular target: T1, GST-Rok-C97-191 (UniProt O34857)
# T1 sequence: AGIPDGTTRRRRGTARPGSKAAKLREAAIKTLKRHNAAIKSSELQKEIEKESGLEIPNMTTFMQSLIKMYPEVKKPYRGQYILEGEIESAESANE
# Assay: protein binding microarray;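 also: rank score from −0.5 (least bound) to 0.5 (best bound)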
# Conditions: Rok is a gene silencer of Bacillus subtilis; high values mean tight binding; most listed sequences are background and not binding sites; double strand, one strand shown
row,Sequence,binding signal
1,GCCTTCTA,-0.171 E-score
2,CACTGGGA,-0.187 E-score
3,ACAAATCT,0.0692 E-score
4,ACTACCAA,0.257 E-score
5,GCCTGTTA,-0.153 E-score
6,GGACAGTA,-0.00767 E-score
7,CTTGGGCA,-0.162 E-score
8,TCTGGTCA,-0.11 E-score
9,AATCCGTG,-0.0668 E-score
10,ATTCACTG,-0.0497 E-score
11,AAGTGTCC,-0.122 E-score
12,CTCCGGTA,0.0894 E-score
13,CCTAGTTA,0.168 E-score
14,AGACGGAC,-0.0383 E-score
15,CTAGCCCC,-0.261 E-score
16,AAGGCCTA,-0.161 E-score
17,CCCAGAGG,-0.0643 E-score
18,CCCCACTA,-0.224 E-score
19,CATACCAG,0.0238 E-score
20,CCCTGCAA,-0.168 E-score
21,CTTGGCAC,-0.263 E-score
22,ACTACACA,0.223 E-score
23,ATAAGCAC,0.105 E-score
24,ACCTTGGG,-0.226 E-score
25,ATCATAAT,0.106 E-score

row,Sequence,binding signal
1,AGACGTAG,-0.0745 E-score
2,TGCGCGCA,0.0584 E-score
3,ATTCCGCA,-0.0237 E-score
4,GCGTGGGA,-0.0939 E-score
5,ATCATCGA,-0.0995 E-score
6,CGACATCC,-0.171 E-score
7,GGGCGGTA,0.052 E-score
8,AGGCGATA,0.0121 E-score
9,AGTTCATA,0.0168 E-score
10,AGCACACC,-0.172 E-score
11,GTTCTTCA,-0.0142 E-score
12,AAGACTAC,0.125 E-score
13,AAAGGTCG,-0.167 E-score
14,AAAGGTGT,-0.109 E-score
15,GCCAGCGC,-0.072 E-score
16,CTGTTGGA,-0.2 E-score
17,AACACTCA,-0.147 E-score
18,CTCCTCAA,-0.0821 E-score
19,TGCACCCA,-0.124 E-score
20,TGCCTAAA,-0.0357 E-score
21,GTGCCAGA,-0.212 E-score
22,CCCTTACC,-0.213 E-score
23,AACATCAG,0.203 E-score
24,CCACTGCG,-0.211 E-score
25,GTGCTACA,0.109 E-score

row,Sequence,binding signal
1,ATTTAAAT,0.32 E-score
2,AGCCTACG,-0.22 E-score
3,CGCCTTAC,-0.0697 E-score
4,TTGGACAA,-0.021 E-score
5,TAGCCAAA,0.12 E-score
6,ATTCGATG,0.154 E-score
7,AGAAGTTC,0.129 E-score
8,CAAGCAAG,-0.131 E-score
9,ACGTGCGG,-0.0284 E-score
10,ATACTAGG,0.045 E-score
11,AATCACCG,-0.0342 E-score
12,CTGTTCAA,-0.201 E-score
13,GGCTACGA,-0.106 E-score
14,AGCATTAA,0.123 E-score
15,TCAGACAA,-0.112 E-score
16,CTAGACAA,0.0408 E-score
17,AACGGCCT,-0.244 E-score
18,AGGATCAG,0.0221 E-score
19,AAATTGAA,0.171 E-score
20,AAGACAAA,-0.0497 E-score
21,GTTTACGA,0.0113 E-score
22,AGAAGACA,0.059 E-score
23,GAGATGTA,0.13 E-score
24,ATCTTGCA,0.13 E-score
25,ACATAATC,0.139 E-score

row,Sequence,binding signal
1,GCCCGAGC,-0.151 E-score
2,GCAGCGAA,0.00145 E-score
3,TAGCCAGA,-0.272 E-score
4,GCGGTCGA,-0.194 E-score
5,GCGGAAGC,-0.0941 E-score
6,CTCCATAC,0.0352 E-score
7,TGCATACA,-0.0705 E-score
8,CATCCCTA,-0.0266 E-score
9,CGGTCGGC,-0.26 E-score
10,GAATCAAA,0.0706 E-score
11,ATATTCAT,0.252 E-score
12,AACACGGT,-0.171 E-score
13,CACGTCGC,-0.131 E-score
14,GTCTTACA,-0.127 E-score
15,GACTTGAA,0.0321 E-score
16,AGCTCCAT,0.0944 E-score
17,ACGACAGG,-0.216 E-score
18,AACCGTGA,-0.055 E-score
19,CAATTACA,0.164 E-score
20,AGATAGAT,0.349 E-score
21,AGCCAGGG,-0.258 E-score
22,ATCATATG,0.217 E-score
23,ACGCGGGA,-0.0896 E-score
24,ACGTGAAG,-0.0554 E-score
25,GAGAGAAA,0.201 E-score

row,Sequence,binding signal
1,ATAAGGCC,-0.124 E-score
2,GACCCCCC,-0.369 E-score
3,AGTGATAG,0.317 E-score
4,CGGCATAC,-0.0101 E-score
5,AGTGTTCA,-0.217 E-score
6,TAGGCGCA,-0.0724 E-score
7,AAACAAAA,-0.036 E-score
8,GCCGTACC,-0.0469 E-score
9,TAAGATGA,0.0492 E-score
10,ACGGTCTC,-0.222 E-score
11,TCTCAACA,0.0624 E-score
12,CGATATAA,0.312 E-score
13,GCTGCAGA,-0.121 E-score
14,GAACAGTA,0.179 E-score
15,ACTGGACA,0.0154 E-score
16,GAACTGGA,-0.0882 E-score
17,CGTCTACA,0.0729 E-score
18,GTTGGGCA,-0.118 E-score
19,GAGGGGGA,-0.339 E-score
20,CATTGTGA,-0.101 E-score
21,AACGTAAT,0.102 E-score
22,AGTACAAT,0.269 E-score
23,CGATTTGA,0.0523 E-score
24,AGTGAGCG,-0.163 E-score
25,ATGATACA,0.232 E-score

row,Sequence,binding signal
1,CCCGTCGA,-0.188 E-score
2,ACAGGCCA,-0.0827 E-score
3,AGTTCGTA,0.256 E-score
4,CTTTTGTC,-0.156 E-score
5,AAAAGCGT,-0.153 E-score
6,AGAATTAA,0.181 E-score
7,ATGTTCTA,0.229 E-score
8,AGACCGAA,-0.134 E-score
9,AACTGACT,-0.0777 E-score
10,GAGTTAAA,0.136 E-score
11,AATCGACC,-0.0453 E-score
12,AGGGTGGC,-0.259 E-score
13,AAACGAGC,-0.161 E-score
14,CGTCTTAC,-0.281 E-score
15,ACCGGGAC,-0.249 E-score
16,TCTCCGAA,0.161 E-score
17,CAGTTATC,0.161 E-score
18,ACTACCTG,0.0951 E-score
19,CGTGTCAC,-0.0756 E-score
20,ACGTTTTC,0.12 E-score
21,CCTGTAGA,0.0258 E-score
22,AGGGTATA,0.154 E-score
23,AGGGTGCA,-0.108 E-score
24,CTTACTTC,0.0829 E-score
25,ACTCAGCC,-0.213 E-score

row,Sequence,binding signal
1,CCTAGACC,-0.246 E-score
2,AACGATAT,0.229 E-score
3,CAACACAG,-0.126 E-score
4,GTCGGGAA,-0.211 E-score
5,AGGTTAGG,-0.139 E-score
6,AGCCGATG,-0.0728 E-score
7,AAGAATCA,0.18 E-score
8,GCGATGGA,-0.00523 E-score
9,AACATGGC,-0.24 E-score
10,CAGGCTGG,-0.202 E-score
11,CCTGAAAA,-0.02 E-score
12,AATGAATA,0.196 E-score
13,CCGTATCA,0.00786 E-score
14,TCTTGTCA,-0.0593 E-score
15,CAAGATCA,0.0691 E-score
16,ACCCGTCA,-0.235 E-score
17,AGCTGCGC,-0.25 E-score
18,GTCCCTTA,-0.152 E-score
19,ATATACAG,0.317 E-score
20,CGTCGAGA,-0.052 E-score
21,CCAGGACC,-0.258 E-score
22,CTCAGGGA,-0.17 E-score
